Assay results as given in PubChem BioAssay (NCATS).
Where “and” joins values, the source holds several entries; their conditions need not be identical. Identical values can stand only once. Inconclusive results, whose numbers are uncertain, are shown with a selection of clear calls. Potencies of inconclusive entries are doubtful fits and often do not repeat. Calls of active or inactive are those of the source. Calls follow the shape of the dose curve; as a rule, active = well fitted curve in the direction sought with a large enough effect; inconclusive = small, poorly fitted or top-dose-only effect, or another doubt; inactive = no such curve, though single readings can be large; an effect the other way counts as inactive or inconclusive.

How the values were obtained:
[1] = qHTS of pediatric cancer cell lines to identify multiple opportunities for drug repurposing: Primary screen for SK-N-SH cells (AID 1347098); conditions: SK-N-SH viability, CellTiter-Glo luminescence, 48 h; activity change, negative = cytotoxic: at 57 µM (top of the series); also: nearly all actives have a fitted effect of over 65% in size;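 as to activity change, negative = cytotoxic: DMSO served as neutral control and bortezomib at 2.3 µM as positive control; % is scaled to controls: 0 for no effect and ±100 for the full control effect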
How it was run: (§1)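 Cells (500-1,000/well) rested 5 h, then received compounds for 48 h; metabolically active cells were measured by CellTiter-Glo luminescence. Final concentrations spanned up to 46 µM (MIPE, 11-point) or 0.59 nM-46 µM (NPC, 8-point) in primary screens, 11-point in follow-ups.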

[2] = qHTS of pediatric cancer cell lines to identify multiple opportunities for drug repurposing: Primary screen for NB1643 cells (AID 1347099); also: nearly all actives have a fitted effect of over 50% in size;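 as to activity change, negative = cytotoxic: plate controls were DMSO neutral control for no effect and bortezomib positive control for full effect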
How it was run: (§2)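 Luminescence from CellTiter-Glo served as readout of metabolically active cells after 48 h compound exposure. Titrations: MIPE 11-point, from 0.78 nM; NPC 8-point, from 0.59 nM (final). Concentration-response curves came straight from the primary screen.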

[3] = qHTS of pediatric cancer cell lines to identify multiple opportunities for drug repurposing: Primary screen for Rh18 cells (AID 1347102); conditions: Rh18 rhabdomyosarcoma viability, CellTiter-Glo luminescence, 48 h; activity change, negative = cytotoxic: at 46 µM (top of the series); also: nearly all actives have a fitted effect of over 65% in size; as to activity change, negative = cytotoxic: % is scaled to controls: 0 for no effect and ±100 for the full control effect
How it was run: as §1

[4] = qHTS of pediatric cancer cell lines to identify multiple opportunities for drug repurposing: Primary screen for OHS-50 cells (AID 1347103); also: nearly all actives have a fitted effect of over 40% in size;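 as to activity change, negative = cytotoxic: plate controls were DMSO neutral control for no effect and bortezomib positive control for full effect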
How it was run: as §1

[5] = qHTS of pediatric cancer cell lines to identify multiple opportunities for drug repurposing: Primary screen for RD cells (AID 1347104); also: nearly all actives have a fitted effect of over 55% in size;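 as to activity change, negative = cytotoxic: plate controls were DMSO for no effect and bortezomib for full effect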
How it was run: as §2

[6] = qHTS of pediatric cancer cell lines to identify multiple opportunities for drug repurposing: Primary screen for LAN-5 cells (AID 1347100); conditions: LAN-5 neuroblastoma viability, CellTiter-Glo luminescence, 48 h; activity change, negative = cytotoxic: at 46 µM (top of the series);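 as to activity change, negative = cytotoxic: plate controls were DMSO neutral control for no effect and bortezomib positive control for full effect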
How it was run: as §1

[7] = qHTS of pediatric cancer cell lines to identify multiple opportunities for drug repurposing: Primary screen for MG 63 (6-TG R) cells (AID 1347105); conditions: MG 63 (6-TG R) viability, CellTiter-Glo, 48 h; activity change, negative = cytotoxic: at 46 µM (top of the series); also: nearly all actives have a fitted effect of over 50% in size; as to activity change, negative = cytotoxic: % is scaled to controls: 0 for no effect and ±100 for the full control effect
How it was run: as §2

[8] = qHTS of pediatric cancer cell lines to identify multiple opportunities for drug repurposing: Primary screen for control Hh wild type fibroblast cells (AID 1347106); also: nearly all actives have a fitted effect of over 55% in size;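 as to activity change, negative = cytotoxic: % is scaled to controls: 0 for no effect and ±100 for the full control effect; a drop in luminescence marks cytotoxicity and a rise apparent proliferation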
How it was run: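 Viability after 48 h compound treatment at 37C, 500-1,000 cells/well, read as ATP luminescence with CellTiter-Glo. Primary screens used 11-point (MIPE, 0.78 nM-46 µM) or 8-point (NPC, 0.59 nM-46 µM) final concentrations; follow-up screens used 11-point dilutions.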

[9] = qHTS of pediatric cancer cell lines to identify multiple opportunities for drug repurposing: Primary screen for BT-12 cells (AID 1347101); also: nearly all actives have a fitted effect of over 25% in size;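 as to activity change, negative = cytotoxic: plate controls were DMSO for no effect and bortezomib positive control for full effect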
How it was run: as §1
Potency is read from the fitted curve at half-maximal effect; tags tell the direction and shape of the fitted curve.

Compound | Potency [1] | Potency [2] | Potency [3] | Potency [4] | Potency [5] | Potency [6] | Potency [7] | Potency [8] | Potency [9] | activity change, negative = cytotoxic [1]
COc1ccnc2[nH]cc(C(=O)C(=O)N3CCN(C(=O)c4ccccc4)C[C@@H]3C)c12 | inconclusive: 34.1 µM [cytotoxic, single point] | inconclusive: 10.5 µM [cytotoxic, partial curve] | inactive | inactive | inconclusive: 20.9 µM [cytotoxic, single point] |  |  |  |  | 
N#CCNC(=O)c1ccc(-c2ccnc(Nc3ccc(N4CCOCC4)cc3)n2)cc1 | active: 12.1 µM | inconclusive: 5.26 µM [cytotoxic, partial curve] | inconclusive: 5.26 µM [cytotoxic, partial curve] | inconclusive: 34.3 µM [cytotoxic, single point] | active: 16.6 µM | inconclusive: 5.9 µM [cytotoxic, partial curve] | active: 18.7 µM | inconclusive: 20.9 µM [cytotoxic, partial curve] |  | 
COc1c(C)c2c(c(O)c1CC=C(C)CCC(=O)O)C(=O)OC2 | inconclusive: 13.6 µM [cytotoxic, partial curve] | inconclusive: 1.48 µM [cytotoxic, full curve] |  | inconclusive: 1.72 µM [cytotoxic, full curve] | inconclusive: 2.96 µM [cytotoxic, full curve] |  | inconclusive: 0.935 µM [cytotoxic, full curve] |  | inconclusive: 2.17 µM [cytotoxic, full curve] | 
CCCCCCCCCCCCCCCC[N+](C)(C)Cc1ccccc1 | inconclusive: 38.6 µM [cytotoxic, single point] | inconclusive: 29.9 µM [cytotoxic, single point] | active: 11.9 µM |  | inconclusive: 29.9 µM [cytotoxic, single point] |  | active: 26.6 µM |  | active: 11 µM | 
CCCCOC(=O)c1ccc(N)cc1 | inactive | inactive |  | inconclusive: 17.4 µM [cytotoxic, partial curve, poor fit] | inconclusive: 13.3 µM [cytotoxic, partial curve] |  |  |  | inactive | 
CN1CCN(C(c2ccccc2)c2ccccc2)CC1 |  | inactive |  | inconclusive: 17.4 µM [cytotoxic, partial curve] | inactive |  |  |  |  | inconclusive: -46.1% [cytotoxic]
CN(Cc1cnc2nc(N)nc(N)c2n1)c1ccc(C(=O)N[C@@H](CCC(=O)O)C(=O)O)cc1 | inconclusive: 21.5 µM [cytotoxic, partial curve] | inconclusive: 59.6 nM [cytotoxic, full curve] and inconclusive: 935 nM [cytotoxic, full curve] |  | inconclusive: 0.0432 µM [cytotoxic, full curve, poor fit] | inconclusive: 0.0209 µM [cytotoxic, full curve, poor fit] | inconclusive: 0.006 µM [cytotoxic, full curve] | inconclusive: 0.0335 µM [cytotoxic, full curve] |  | inconclusive: 0.0432 µM [cytotoxic, full curve, poor fit] | 
C[C@]12C=CC(=O)N[C@@H]1CC[C@H]1[C@H]3CC[C@@H](C(=O)Nc4cc(C(F)(F)F)ccc4C(F)(F)F)[C@@]3(C)CC[C@@H]12 | inactive | inconclusive: 18.7 µM [cytotoxic, partial curve, poor fit] |  | inconclusive: 10.9 µM [cytotoxic, full curve] |  | inactive |  |  |  | 
CCCCCCNC(=O)n1cc(F)c(=O)[nH]c1=O | inconclusive: 4.33 µM [cytotoxic, full curve] and inconclusive: 24.1 µM [cytotoxic, partial curve] | inconclusive: 5.31 µM [cytotoxic, partial curve] |  |  | inconclusive: 9.44 µM [cytotoxic, partial curve, poor fit] and inconclusive: 16.6 µM [cytotoxic, partial curve] |  |  |  | inconclusive: 5.5 µM [cytotoxic, partial curve] and inconclusive: 7.69 µM [cytotoxic, partial curve] | 
CCCCOc1ccc(C(=O)CCN2CCCCC2)cc1 | inconclusive: 30.7 µM [cytotoxic, single point] | inconclusive: 21.1 µM [cytotoxic, single point] | inconclusive: 26.6 µM [cytotoxic, single point] | inconclusive: 19.5 µM [cytotoxic, single point] | inconclusive: 37.6 µM [cytotoxic, single point] | inconclusive: 18.8 µM [cytotoxic, partial curve] | inconclusive: 16.8 µM [cytotoxic, partial curve, poor fit] |  | inconclusive: 6.92 µM [cytotoxic, single point] | 
CC(C)(C)CC(C)(C)c1ccc(O)c(Cc2ccc(Cl)cc2Cl)c1 | inconclusive: 30.7 µM [cytotoxic, single point] | inconclusive: 33.5 µM [cytotoxic, single point] | inconclusive: 29.9 µM [cytotoxic, single point] |  | inconclusive: 15 µM [cytotoxic, single point] |  | active: 26.6 µM |  | inconclusive: 38.9 µM [cytotoxic, single point] | 
CN[C@H]1CCc2cc(OC)c(OC)c(OC)c2-c2ccc(OC)c(=O)cc21 | inconclusive: 54.1 µM [cytotoxic, partial curve, poor fit] | inconclusive: 0.0074 µM [cytotoxic, full curve] | inconclusive: 2.64 µM [cytotoxic, partial curve, poor fit] | active: 0.0015 µM | inconclusive: 0.0015 µM [cytotoxic, full curve] |  |  | inconclusive: 0.0093 µM [cytotoxic, full curve] | active: 0.0039 µM | 
CCN(CC)CCCC(C)Nc1ccnc2cc(Cl)ccc12 (centres undefined) | inconclusive: 6.7 µM [cytotoxic, partial curve, poor fit] and inconclusive: 38.3 µM [cytotoxic, single point] | inconclusive: 3.26 µM [cytotoxic, partial curve, poor fit] |  | inconclusive: 12 µM [cytotoxic, partial curve] and active: 8.63 µM |  |  |  |  | inconclusive: 8.49 µM [cytotoxic, partial curve, poor fit] and active: 3.43 µM | 
C/C=C(/C(=C/C)c1ccc(O)cc1)c1ccc(O)cc1 | inconclusive: 38.6 µM [cytotoxic, single point] | inconclusive: 33.5 µM [cytotoxic, single point] | inactive | active: 21.9 µM | inconclusive: 23.7 µM [cytotoxic, single point] |  | inconclusive: 21.1 µM [cytotoxic, partial curve, poor fit] |  | inconclusive: 6.92 µM [cytotoxic, single point] | 
Cc1nn(Cc2ccccc2Cl)c(C)c1CN(C)CC(O)COc1ccc(Cl)cc1 (centres undefined) | active: 24.1 µM | active: 14.8 µM | inconclusive: 18.7 µM [cytotoxic, partial curve] |  |  |  | inconclusive: 23.5 µM [cytotoxic, single point] |  | inconclusive: 30.6 µM [cytotoxic, single point] | 
C[N+](C)([O-])CCNc1ccc(NCC[N+](C)(C)[O-])c2c1C(=O)c1c(O)ccc(O)c1C2=O | inconclusive: 4.29 µM [cytotoxic, partial curve] | inconclusive: 20.9 µM [cytotoxic, single point] | inactive |  | inconclusive: 20.9 µM [cytotoxic, partial curve] | inconclusive: 33.2 µM [cytotoxic, single point] |  |  |  | 
Cc1ccc(S(=O)(=O)Nc2cc(Cl)ccc2C(=O)Nc2nc(-c3ccccc3)cs2)cc1 | inactive | active: 3.72 µM |  |  |  |  |  | inactive | inconclusive: 13.7 µM [cytotoxic, partial curve] | 
Cc1c(O)cccc1C(=O)N[C@@H](CSc1ccccc1)[C@H](O)CN1C[C@H]2CCCC[C@H]2C[C@H]1C(=O)NC(C)(C)C | inconclusive: 38.6 µM [cytotoxic, single point] | inconclusive: 29.9 µM [cytotoxic, single point] | inconclusive: 21.1 µM [cytotoxic, single point] | active: 24.6 µM | active: 23.7 µM | inconclusive: 29.9 µM [cytotoxic, single point] | active: 26.6 µM | inactive | inconclusive: 21.9 µM [cytotoxic, single point] | 
c1cc(CN2CCCNCCNCCCNCC2)ccc1CN1CCCNCCNCCCNCC1 | inconclusive: 42.9 µM [cytotoxic, single point] | inactive |  |  |  |  | inactive |  | inactive | 
Cc1cnc(CNC(=O)c2c(=O)c3ccc(N4CCCN(C)CC4)nc3n3c2sc2ccccc23)cn1 | inconclusive: 3.32 µM [cytotoxic, partial curve, poor fit] | inconclusive: 3.63 µM [cytotoxic, partial curve] | inactive |  |  | inconclusive: 0.363 µM [cytotoxic, full curve] | inconclusive: 2.57 µM [cytotoxic, partial curve, poor fit] |  | inconclusive: 1.33 µM [cytotoxic, partial curve] | 
